This note sets out measurements from the antibiotic and cytotoxicity screens of Wong et al. (2023).

One assay concerns HSkMC. The experiment in a line: cytotoxicity call (relative viability < 0.9). The following applies: 10 µM.
In another assay the test system is HepG2. Nature of the assay: cytotoxicity call (relative viability < 0.9). To be noted: 10 µM.
Another assay relates to S. aureus RN4220. The experiment in a line: growth inhibition call (relative growth <= 0.2). The following applies: 50 µM.

The list shows a part of the results.

In the case of `O=C(C[C@@H]1CC[C@H]2[C@@H](COC[C@@H](O)CN2S(=O)(=O)c2ccc(F)cc2)O1)NCCN1CCCCC1`, the cytotoxicity call with HSkMC and with HepG2 was “inactive” in each case. Moreover, in the assay with S. aureus RN4220, the growth inhibition call is “inactive”.
For the molecule `C[C@H]1CN([C@@H](C)CO)C(=O)Cc2cc(NC(=O)Nc3ccc4c(c3)OCO4)ccc2O[C@@H]1CN(C)Cc1ccc(-c2ccccc2)cc1`, the cytotoxicity call in the assay on HSkMC was “inactive”. In addition, in the assay on HepG2, the cytotoxicity call is “active”. Also, in the assay with S. aureus RN4220, the growth inhibition call is “inactive”.
As to `C[C@H](CO)N1C[C@H](C)[C@H](CN(C)C(=O)Nc2ccc(C(F)(F)F)cc2)Oc2ncc(C3=CCCC3)cc2C1=O`, the cytotoxicity call in the assay with HSkMC and in the assay on HepG2 was “inactive” each time. In addition, the growth inhibition call in the assay with S. aureus RN4220 is “inactive”.
In the case of `C[C@H]1CN([C@@H](C)CO)C(=O)Cc2cc(NC(=O)Cn3cnnn3)ccc2O[C@@H]1CN(C)C(=O)NC1CCCCC1`, the cytotoxicity call with HSkMC and in the assay on HepG2 was “inactive” throughout. The growth inhibition call in the assay on S. aureus RN4220 is “inactive”.
With `C[C@H]1CN([C@@H](C)CO)S(=O)(=O)c2ccc(C#CCN(C)C)cc2O[C@@H]1CN(C)C(=O)CN(C)C`, the cytotoxicity call with HSkMC and in the assay with HepG2 was “inactive” each time. In addition, in the assay with S. aureus RN4220, the growth inhibition call is “inactive”.
In the case of `COc1cc(C)c(C(=O)O)c(O)c1`, the cytotoxicity call in the assay with HSkMC and in the assay on HepG2 was “inactive” each time. Also, the growth inhibition call in the assay with S. aureus RN4220 is “inactive”.
Regarding `Cn1cnc(S(=O)(=O)N2C[C@@H](O)COC[C@@H]3O[C@@H](CC(=O)NCc4cc(F)cc(F)c4)CC[C@H]32)c1`, the cytotoxicity call in the assay on HSkMC and in the assay on HepG2 was “inactive” each time. Besides, in the assay with S. aureus RN4220, the growth inhibition call is “inactive”.
As to `COCC(=O)N1C[C@@H](C)[C@@H](OC)CN(C)C(=O)c2cc(NC(=O)Nc3ccccc3)ccc2OC[C@H]1C`, the cytotoxicity call in the assay on HSkMC and in the assay with HepG2 was “inactive” in each case. Moreover, the growth inhibition call with S. aureus RN4220 was “inactive”.
Take `C[C@@H]1CN([C@H](C)CO)C(=O)CCCn2nncc2CO[C@H]1CN(C)C(=O)CCCN(C)C`: the cytotoxicity call with HSkMC and with HepG2 was “inactive” each time. In addition, the growth inhibition call in the assay on S. aureus RN4220 is “inactive”.
For `C[C@@H]1CN([C@H](C)CO)C(=O)c2cccc(NC(=O)Nc3ccc(C(F)(F)F)cc3)c2O[C@@H]1CN(C)S(=O)(=O)c1ccc(F)cc1`, the cytotoxicity call in the assay with HSkMC and in the assay with HepG2 was “inactive” in each case. In addition, the growth inhibition call in the assay with S. aureus RN4220 is “inactive”.
For the molecule `C[C@@H]1CCCCO[C@@H](CN(C)CC2CCCCC2)[C@H](C)CN([C@H](C)CO)C(=O)c2cc(NC(=O)Nc3ccc(C(F)(F)F)cc3)ccc2O1`, the cytotoxicity call with HSkMC and with HepG2 was “active” in each case. Also, the growth inhibition call with S. aureus RN4220 is “inactive”.
As for `CC(=O)c1ccc2ccccc2c1`, the cytotoxicity call in the assay on HSkMC and in the assay with HepG2 was “inactive” throughout. Besides, in the assay on S. aureus RN4220, the growth inhibition call is “inactive”.
Turning to `C[C@@H]1CN([C@@H](C)CO)C(=O)c2cc(NC(=O)C3CCCCC3)ccc2O[C@@H](C)CCCCO[C@@H]1CN(C)C(=O)NC1CCCCC1`, the cytotoxicity call in the assay on HSkMC and in the assay with HepG2 was “inactive” throughout. Moreover, the growth inhibition call in the assay on S. aureus RN4220 was “inactive”.
On to `COc1ccccc1S(=O)(=O)N[C@@H]1CC[C@H](CCNC(=O)C2CCOCC2)O[C@H]1CO`, for which the cytotoxicity call in the assay with HSkMC and in the assay with HepG2 was “inactive” each time. In addition, the growth inhibition call with S. aureus RN4220 is “inactive”.
In the case of `CO[C@@H]1CN(C)C(=O)c2ccc(NC(=O)C3CCOCC3)cc2OC[C@@H](C)N(CC2CCOCC2)C[C@H]1C`, the cytotoxicity call in the assay with HSkMC and with HepG2 was “inactive” throughout. Also, the growth inhibition call with S. aureus RN4220 was “inactive”.
`C[C@@H]1CN([C@H](C)CO)C(=O)c2c(c3ccccc3n2C)-c2ccccc2CO[C@H]1CN(C)Cc1ccc(C(=O)O)cc1`: the cytotoxicity call in the assay on HSkMC and in the assay on HepG2 was “inactive” each time. Besides, the growth inhibition call with S. aureus RN4220 was “inactive”.
With `C[C@H]1CN([C@@H](C)CO)C(=O)c2cc(NC(=O)C3CCCCC3)ccc2O[C@H]1CN(C)C(=O)Nc1ccc(C(F)(F)F)cc1`, the cytotoxicity call in the assay on HSkMC and with HepG2 was “inactive” throughout. Also, the growth inhibition call in the assay on S. aureus RN4220 is “inactive”.
On to `C[C@H]1CN([C@@H](C)CO)C(=O)Cc2cc(NC(=O)Nc3ccc(C(F)(F)F)cc3)ccc2O[C@H]1CN(C)Cc1ccc(C(F)(F)F)cc1`, for which the cytotoxicity call with HSkMC and in the assay with HepG2 was “active” each time. In the assay with S. aureus RN4220, the growth inhibition call is “inactive”.
Turning to `CCS(=O)(=O)N1CC[C@@H]2CO[C@H](CN3CCN(C)CC3)[C@@H]2C1`, the cytotoxicity call in the assay with HSkMC and with HepG2 was “inactive” throughout. Besides, the growth inhibition call with S. aureus RN4220 was “inactive”.
On to `C=CCOC(=O)[C@@H]1[C@H]2C(=O)O[C@H](c3ccccc3)[C@H](c3ccccc3)N2[C@H](c2ccc(OCCOC(=O)[C@@H]3C[C@@H]4C(=O)N[C@@H](CC(C)C)C(=O)N4[C@@H]3c3ccc(O)cc3)cc2)[C@@]12C(=O)Nc1ccccc12`, for which the cytotoxicity call with HSkMC and in the assay on HepG2 was “inactive” each time. Besides, the growth inhibition call in the assay with S. aureus RN4220 is “inactive”.
With `CC[C@H]1OC(=O)C[C@@H](O)[C@H](C)[C@@H](O[C@@H]2O[C@H](C)C[C@H](N(C)C)[C@H]2O)[C@@H](CC=O)C[C@@H](C)C(=O)/C=C/[C@]2(C)O[C@H]2[C@@H]1C`, the cytotoxicity call in the assay with HSkMC and in the assay with HepG2 was “inactive” each time. Also, the growth inhibition call in the assay with S. aureus RN4220 was “active”.
`CC(C)NC(=O)Nc1ccc2c(c1)CC(=O)N([C@@H](C)CO)C[C@H](C)[C@H](CN(C)C(=O)Nc1ccc3c(c1)OCO3)O2`: the cytotoxicity call in the assay on HSkMC and in the assay with HepG2 was “inactive” throughout. Besides, in the assay with S. aureus RN4220, the growth inhibition call was “inactive”.
Regarding `C[C@@H]1CN([C@@H](C)CO)C(=O)c2cc(NC(=O)Nc3ccc(F)cc3)ccc2O[C@@H](C)CCCCO[C@H]1CN(C)Cc1ccncc1`, the cytotoxicity call in the assay on HSkMC and in the assay with HepG2 was “inactive” throughout. Further, the growth inhibition call with S. aureus RN4220 was “inactive”.
In the case of `Cc1noc(C)c1S(=O)(=O)Nc1ccc2c(c1)C(=O)N([C@H](C)CO)C[C@@H](C)[C@@H](CN(C)S(=O)(=O)c1cn(C)cn1)OCCCC[C@@H](C)O2`, the cytotoxicity call in the assay on HSkMC (human skeletal muscle cells) and in the assay with HepG2 was “inactive” in each case. The growth inhibition call in the assay with S. aureus RN4220 was “inactive”.
